# In all, about 33,000 sequences were measured (“E-score (-0.5 to 0.5)”: median about -0.041, highest 2% from about 0.37 on). This is one part of the list.
# Target: T1, Ecm22 (UniProt Q05958)
# T1 sequence: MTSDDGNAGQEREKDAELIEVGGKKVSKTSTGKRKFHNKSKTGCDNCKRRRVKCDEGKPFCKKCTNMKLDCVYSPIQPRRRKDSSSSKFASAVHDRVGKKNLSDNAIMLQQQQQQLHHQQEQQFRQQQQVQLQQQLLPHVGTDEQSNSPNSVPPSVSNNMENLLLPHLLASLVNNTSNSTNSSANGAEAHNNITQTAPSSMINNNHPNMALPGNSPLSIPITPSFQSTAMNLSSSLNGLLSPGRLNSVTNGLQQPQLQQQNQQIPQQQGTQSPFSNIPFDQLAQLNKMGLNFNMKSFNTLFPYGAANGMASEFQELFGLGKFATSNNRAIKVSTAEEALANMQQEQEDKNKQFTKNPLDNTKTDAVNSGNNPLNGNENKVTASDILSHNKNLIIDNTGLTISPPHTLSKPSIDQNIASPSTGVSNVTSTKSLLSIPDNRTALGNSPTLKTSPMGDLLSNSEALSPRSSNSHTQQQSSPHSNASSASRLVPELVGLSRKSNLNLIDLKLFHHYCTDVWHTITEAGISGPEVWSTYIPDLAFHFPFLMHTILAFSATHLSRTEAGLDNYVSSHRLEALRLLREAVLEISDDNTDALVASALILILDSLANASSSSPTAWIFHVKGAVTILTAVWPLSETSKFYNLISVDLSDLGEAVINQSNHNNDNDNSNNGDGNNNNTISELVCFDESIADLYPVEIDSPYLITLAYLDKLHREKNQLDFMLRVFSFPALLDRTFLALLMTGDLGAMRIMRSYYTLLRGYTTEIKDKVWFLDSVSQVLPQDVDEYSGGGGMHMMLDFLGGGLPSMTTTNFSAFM
# Assay: PBM E-score (8-mer binding enrichment) (E-score (-0.5 to 0.5)); higher = stronger / more preferred TF binding; most listed sequences are background and not binding sites
# Details: protein concentration: 200 nM; construct: GST-full length
# In short: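 Bound GST-tagged yeast transcription factors, applied at about 100-200 nM to double-stranded universal all-10-mer Agilent arrays, were detected with fluorescent anti-GST. Scans were normalised with masliner. A modified Wilcoxon-Mann-Whitney statistic, the E-score, was assigned to each ungapped eight-base word pooled with its reverse complement by the Universal PBM Analysis Suite.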
row,Sequence,PBM E-score
1,AGTCTCCA,-0.065
2,CTGTATTC,0.0901
3,GCTCAAGA,-0.198
4,GGTGTGTA,-0.0586
5,CCGAATCC,0.248
6,CCGATGAG,-0.116
7,CCATTGCC,-0.089
8,ACCATGAT,-0.0878
9,GGGTAGAC,-0.151
10,CGGCCAAG,-0.105
11,CTAGTCAA,-0.0961
12,TTGGCAAA,-0.0952
13,CTCTTGCA,-0.146
14,TAATGGCA,-0.165
15,ACCTTGAC,-0.285
16,ACATCCTC,0.0744
17,ATCTCACC,-0.156
18,CCGCACGC,-0.0486
19,ACCTTACA,-0.191
20,ATAGTGCC,0.0559
21,GGAGATAA,-0.0482
22,CCCTTGTC,-0.165
23,ACGTAAAA,0.243
24,GCGACGAA,0.26
25,CCTTTAAA,-0.135

row,Sequence,PBM E-score
1,AAGCAATG,-0.136
2,TAAGGCTA,0.0571
3,AAGAGATT,-0.173
4,AACTGACG,-0.13
5,CCGTTCGC,0.12
6,CACATAAC,-0.0514
7,CCGCAGCC,-0.0533
8,AGTTGAAG,-0.177
9,AAGCAACC,-0.119
10,ACACCCTA,-0.0231
11,GGTTACTA,-0.123
12,AACACATC,0.0582
13,ATCCGACG,0.207
14,AGAGCGCT,-0.217
15,AGGACGAT,0.0342
16,GGACGGTA,-0.17
17,CACGCGAC,0.0909
18,AGGAACCG,0.0955
19,CGCGCATA,0.0633
20,ATCGGAAT,0.00036
21,ACATAAGG,-0.0331
22,CCTCTGGA,-0.186
23,GCCTGTCA,-0.17
24,AGGCCTTC,-0.0493
25,CGACCTTC,0.159

row,Sequence,PBM E-score
1,ACCTGAGT,-0.121
2,AGATACAG,-0.0199
3,GATCTCGA,0.04
4,ACTGGCAG,-0.171
5,GCATGTGA,-0.0633
6,ATGGGTCG,0.111
7,GACATGCA,-0.0288
8,GTCGCATA,0.369
9,CGACAGCA,0.105
10,CCTCACTA,-0.119
11,AAACAGAA,-0.129
12,ATCGGCCC,-0.12
13,TATTAGGA,0.0943
14,AATTCCAA,-0.172
15,CGGCGTAA,0.249
16,CTCATACA,-0.0369
17,CTTCCAGA,-0.0671
18,AGGATCCC,-0.031
19,GCTCCTAA,-0.217
20,GGGATAAA,-0.00211
21,ACACGCAG,0.127
22,GCTCAGAA,-0.0447
23,GTCGGAAC,0.217
24,GCAACTGA,0.0723
25,GGTCAAAC,0.19

row,Sequence,PBM E-score
1,CCCTCGCA,0.243
2,CCTTTTGC,-0.0641
3,ACTTTAAG,-0.188
4,ACGCCTGC,-0.163
5,GCATCCGC,-0.18
6,ATGTATAC,0.179
7,CATTGATC,0.079
8,GAACTTTA,0.0311
9,GACGAGCC,0.0624
10,CGGGCCTA,-0.0109
11,CGGCCACA,-0.127
12,GCATGCTA,-0.0636
13,ACGACCCA,0.33
14,AATGAACA,0.0137
15,CAAAAGGC,-0.141
16,CATCCGGG,-0.0612
17,TTAAACAA,-0.156
18,CATTTTCC,-0.0876
19,GGCACGCC,-0.232
20,ATCCCGCC,0.0153
21,ACCACAGG,-0.188
22,AGATAGAT,-0.143
23,GGCTATAA,-0.0859
24,ATCTCACG,-0.0833
25,ATCCTTAG,-0.0593

row,Sequence,PBM E-score
1,AACCTCAT,-0.183
2,GCAACAGA,-0.113
3,ATGAATGG,-0.174
4,ACGCGTAA,0.128
5,CGCAATTC,0.0663
6,AGGCTCAA,-0.37
7,ACACGGCG,-0.0862
8,CGGACCAG,0.112
9,ACCCGGAT,0.0534
10,CAAAGCGC,-0.14
11,ATTGGACC,-0.189
12,CTCACCAA,-0.0306
13,ACGTGCGA,0.206
14,ATGGAATC,0.127
15,GCTGGCAC,-0.325
16,CAGCACCC,-0.15
17,ATTTGTCC,-0.139
18,ATCAAGAG,-0.0407
19,GCCCTAAC,-0.27
20,AAGGACTG,-0.244
21,GTTCCCGA,0.271
22,TAGCTATA,0.0445
23,CTCATGGC,-0.0939
24,AACCGCAA,0.0506
25,GTCTCTAA,-0.0743

row,Sequence,PBM E-score
1,ACACAGTC,0.0479
2,CCGTCTAG,-0.0762
3,CCAAAGCC,-0.129
4,CTAATCAC,0.0645
5,CTTTCTCC,-0.177
6,CTGATGCC,-0.127
7,ACTACATA,-0.238
8,AATTTTGG,-0.0778
9,AAATAACC,-0.212
10,CCAAAGAG,-0.223
11,GAGGTGAA,-0.00098
12,ACGAGTAC,0.421
13,CCCACATC,-0.184
14,CAACCGTG,-0.13
15,AGAGGAGG,-0.172
16,AAGGAATA,0.0891
17,CGGCGGGA,-0.107
18,CACGCCCA,-0.278
19,ATACGCCA,0.286
20,GCATGTCA,-0.0571
21,CGTCGAAA,0.187
22,GCTTCAAC,-0.141
23,GGCCGAAC,-0.0006
24,CCCTCCGG,-0.11
25,ACTAAGAC,-0.121

row,Sequence,PBM E-score
1,GTTCGCGA,0.325
2,GAGCCGCC,-0.104
3,CTCGTCAA,-0.00128
4,CTGTCCCA,-0.11
5,AGTTATAC,0.327
6,ACCGAGAC,0.179
7,CCTCAGCC,-0.211
8,GGTCAACC,-0.0213
9,GAGAGCAA,-0.0748
10,GAATCGTA,0.38
11,AGCTTTAA,0.012
12,GCTAAACC,0.0474
13,AGATTACA,0.0505
14,AATCCCGC,-0.00265
15,CCAATCTA,-0.107
16,AGTAAGTC,-0.0599
17,CTATCTAC,0.0159
18,GCCTGACA,-0.277
19,TGGAGAAA,-0.203
20,TCTGTGCA,-0.237
21,TACCAACA,-0.0136
22,AAGCAGGT,-0.29
23,CGGCATCC,0.0319
24,ACCGGAGC,-0.118
25,CGAATACG,0.362

row,Sequence,PBM E-score
1,CAACCTCG,0.195
2,CGTATACC,0.469
3,TAGAGGGA,-0.265
4,CTGTAAAC,-0.0609
5,CTTCCCTC,-0.02
6,ACCTCCCT,-0.129
7,ACGCCACA,-0.00205
8,TGGCCAAA,-0.173
9,ACCACCTC,-0.0744
10,GGAGGGTA,-0.242
11,CCCTACAA,-0.0348
12,CGCCAGTA,-0.0113
13,AAGGTCCG,0.0272
14,GATCGTAC,0.454
15,GATTCGCC,0.0637
16,CAGTTTCC,-0.0573
17,ACATCTCT,-0.24
18,AACATTTG,-0.079
19,CTAGCTTC,-0.073
20,AGTCGTCA,-0.236
21,GGCAAAAA,-0.0775
22,AAAACGCG,0.213
23,TGATAAAA,0.0339
24,GATTTCAA,-0.148
25,GGCTACCA,-0.2

row,Sequence,PBM E-score
1,AGCCACCT,-0.202
2,ATAGGACG,-0.105
3,ATGATTAG,-0.0405
4,CGTTACGA,0.403
5,GGTTCTGA,0.0927
6,GCATGCGA,0.25
7,GCCGTGAC,-0.168
8,CCCCTCCC,-0.196
9,AATCAAGA,-0.0519
10,TAAAAGTA,-0.188
11,ATGGCCCA,-0.0849
12,ACTGACCG,0.113
13,CATCTTGA,-0.108
14,ATCTTGAG,-0.165
15,CAGGGCGA,0.0473
16,GGGACGAA,-0.0942
17,CGTGACAA,-0.0343
18,CTTCCCGA,0.122
19,GGAGATAC,-0.00238

# Reference: the supplement of paper PMC3334620
